Results: the supplement of paper PMC8728848
Some of the results follow.

Legend:
Assay in all cases: glycan array binding signal (z-score within array); higher = stronger binding
Details in all cases: glycan notation: IUPAC condensed, linker removed; mutation: W10H
[1] = biological target: Gal(b1-4)GalNAc(b1-3)[Fuc(a1-2)]Gal(b1-4)GlcNAc
Procedure, shortened: (§1)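 Glycan array data came from 3228 arrays in the Consortium for Functional Glycomics database, and only arrays with an available protein sequence were kept. Glycan names were put into IUPAC-condensed notation, and columns mapping to the same glycan were averaged. The binding signal is a within-array Z-score, averaged across arrays of one protein sequence run at different concentrations or buffers and across linkers. A negative Z-score can be read as non-binding.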

Gal(b1-4)Glc = biological target: Gal(b1-4)Glc
Procedure, shortened: as §1

Gal(b1-4)Glc6S = biological target: Gal(b1-4)Glc6S
Procedure, shortened: as §1

Gal(b1-4)GlcNAc = biological target: Gal(b1-4)GlcNAc
Procedure, shortened: as §1

[2] = biological target: Gal(b1-4)GlcNAc(a1-6)Gal(b1-4)GlcNAc
Procedure, shortened: as §1

Gal(b1-4)GlcNAc(b1-2)Man = biological target: Gal(b1-4)GlcNAc(b1-2)Man
Procedure, shortened: as §1

[3] = biological target: Gal(b1-4)GlcNAc(b1-2)Man(a1-3)Man(b1-4)GlcNAc(b1-4)GlcNAc
Procedure, shortened: as §1

[4] = biological target: Gal(b1-4)GlcNAc(b1-2)Man(a1-3)[Gal(b1-4)GlcNAc(b1-2)Man(a1-6)]Man(b1-4)GlcNAc(b1-4)GlcNAc
Procedure, shortened: as §1

[5] = biological target: Gal(b1-4)GlcNAc(b1-2)Man(a1-3)[Gal(b1-4)GlcNAc(b1-2)Man(a1-6)]Man(b1-4)GlcNAc(b1-4)[Fuc(a1-6)]GlcNAc
Procedure, shortened: as §1

[6] = biological target: Gal(b1-4)GlcNAc(b1-2)Man(a1-3)[Gal(b1-4)GlcNAc(b1-2)Man(a1-6)][Gal(b1-4)GlcNAc(b1-4)]Man(b1-4)GlcNAc(b1-4)[Fuc(a1-6)]GlcNAc
Procedure, shortened: as §1

[7] = biological target: Gal(b1-4)GlcNAc(b1-2)Man(a1-3)[Gal(b1-4)GlcNAc(b1-2)Man(a1-6)][GlcNAc(b1-4)]Man(b1-4)GlcNAc(b1-4)[Fuc(a1-6)]GlcNAc
Procedure, shortened: as §1

[8] = biological target: Gal(b1-4)GlcNAc(b1-2)Man(a1-3)[GlcNAc(b1-2)Man(a1-6)]Man(b1-4)GlcNAc(b1-4)GlcNAc
Procedure, shortened: as §1

[9] = biological target: Gal(b1-4)GlcNAc(b1-2)Man(a1-3)[GlcNAc(b1-4)][Gal(b1-4)GlcNAc(b1-2)Man(a1-6)]Man(b1-4)GlcNAc(b1-4)GlcNAc
Procedure, shortened: as §1

[10] = biological target: Gal(b1-4)GlcNAc(b1-2)Man(a1-3)[Man(a1-6)]Man(b1-4)GlcNAc(b1-4)GlcNAc
Procedure, shortened: as §1

[11] = biological target: Gal(b1-4)GlcNAc(b1-2)Man(a1-6)Man(b1-4)GlcNAc(b1-4)GlcNAc
Procedure, shortened: as §1

[12] = biological target: Gal(b1-4)GlcNAc(b1-2)Man(a1-6)[GlcNAc(b1-2)Man(a1-3)]Man(b1-4)GlcNAc(b1-4)GlcNAc
Procedure, shortened: as §1

[13] = biological target: Gal(b1-4)GlcNAc(b1-2)Man(a1-6)[Man(a1-3)]Man(b1-4)GlcNAc(b1-4)GlcNAc
Procedure, shortened: as §1

[14] = biological target: Gal(b1-4)GlcNAc(b1-2)[Gal(b1-4)GlcNAc(b1-4)]Man(a1-3)[Gal(b1-4)GlcNAc(b1-2)Man(a1-6)]Man(b1-4)GlcNAc(b1-4)GlcNAc
Procedure, shortened: as §1

[15] = biological target: Gal(b1-4)GlcNAc(b1-2)[Gal(b1-4)GlcNAc(b1-4)]Man(a1-3)[Gal(b1-4)GlcNAc(b1-2)[Gal(b1-4)GlcNAc(b1-6)]Man(a1-6)]Man(b1-4)GlcNAc(b1-4)GlcNAc
Procedure, shortened: as §1

[16] = biological target: Gal(b1-4)GlcNAc(b1-2)[Gal(b1-4)GlcNAc(b1-4)]Man(a1-3)[GlcNAc(b1-4)][Gal(b1-4)GlcNAc(b1-2)Man(a1-6)]Man(b1-4)GlcNAc(b1-4)GlcNAc
Procedure, shortened: as §1

[17] = biological target: Gal(b1-4)GlcNAc(b1-2)[Gal(b1-4)GlcNAc(b1-4)]Man(a1-3)[GlcNAc(b1-4)][Gal(b1-4)GlcNAc(b1-2)[Gal(b1-4)GlcNAc(b1-6)]Man(a1-6)]Man(b1-4)GlcNAc(b1-4)GlcNAc
Procedure, shortened: as §1

[18] = biological target: Gal(b1-4)GlcNAc(b1-2)[Gal(b1-4)GlcNAc(b1-6)]Man(a1-6)[Gal(b1-4)GlcNAc(b1-2)Man(a1-3)]Man(b1-4)GlcNAc(b1-4)GlcNAc
Procedure, shortened: as §1

B1: Banana lectin (Musa acuminata) (protein)
chain: MNGAIKVGAHGGNGGSAFDMGPAYRIISVKIFSGDVVDGVDVTFTYYGKTETRHYGGSGGTPHEIVLQEGEYLVGMAGEVANYHGAVVLGKLGFSTNKKAYGPFGNTGGTPFSLPIAAGKISGFFGRGGKFLDAIGVYLEPLEHHHHHH
[1]
  glycan array binding signal (z-score): -0.159
Gal(b1-4)Glc
  glycan array binding signal (z-score): -0.167
Gal(b1-4)Glc6S
  glycan array binding signal (z-score): -0.147
Gal(b1-4)GlcNAc
  glycan array binding signal (z-score): -0.164
[2]
  glycan array binding signal (z-score): -0.202
Gal(b1-4)GlcNAc(b1-2)Man
  glycan array binding signal (z-score): -0.179
[3]
  glycan array binding signal (z-score): -0.126
[4]
  glycan array binding signal (z-score): -0.187
[5]
  glycan array binding signal (z-score): -0.164
[6]
  glycan array binding signal (z-score): -0.152
[7]
  glycan array binding signal (z-score): -0.156
[8]
  glycan array binding signal (z-score): -0.102
[9]
  glycan array binding signal (z-score): -0.172
[10]
  glycan array binding signal (z-score): -0.137
[11]
  glycan array binding signal (z-score): -0.181
[12]
  glycan array binding signal (z-score): -0.112
[13]
  glycan array binding signal (z-score): 1.81
[14]
  glycan array binding signal (z-score): -0.166
[15]
  glycan array binding signal (z-score): -0.044
[16]
  glycan array binding signal (z-score): -0.159
[17]
  glycan array binding signal (z-score): -0.175
[18]
  glycan array binding signal (z-score): -0.111
